Most values come without repeats; read them as rough.
Legend:
CHO-K1 [1] = test: micronucleus frequency (% of nucleated events); higher = more micronuclei (genotoxic)
CHO-K1 [2] = test: hypodiploid nuclei frequency (% of nucleated events); higher = more hypodiploid events (aneugenic)
Experimental: (§1)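 Flow-cytometric in vitro micronucleus assay (Litron MicroFlow) in CHO-K1 cells in 96-well plates, 19 concentrations (4.5-200 µM, n=1 per concentration). Without S9, cells were exposed for 24 h and sampled at 48 h. With Aroclor 1254-induced rat liver S9, cells were exposed for 3-4 h and sampled at 27-28 h. Read-outs are %MN and %hypodiploid nuclei relative to nucleated events, and relative survival as the nuclei-to-bead ratio versus the 1% DMSO vehicle control (x100).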

CHO-K1 [3] = test: relative survival (nuclei to bead ratio vs DMSO control) (% of vehicle control); higher = more surviving cells
Experimental: as §1
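For hypodiploid nuclei frequency (% of nucleated events) in this document: hypodiploid nuclei gated on a flow cytometer with 488 nm excitation after SYTOX Green staining, cultures at 37 °C, positive controls vinblastine without S9 and cyclophosphamide with S9.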
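For micronucleus frequency (% of nucleated events) in this document: cells lysed with nuclei stained by SYTOX Green, then micronucleus-gated events counted against nucleated events by flow cytometry with 488 nm excitation.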
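For relative survival (nuclei to bead ratio vs DMSO control) in this document: Lysed-cell nuclei stained with SYTOX Green and counted against counting beads by flow cytometry at 488 nm excitation, with vinblastine (no S9) and cyclophosphamide (plus S9) as positive controls.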

ClC(Cl)c1ccccc1 [Benzal chloride]
Details | hypodiploid nuclei frequency, CHO-K1 [2] [%] | micronucleus frequency, CHO-K1 [1] [%] | relative survival, CHO-K1 [3]
concentration: 4.5 (µM), S9 metabolic activation: with S9, exposure time: 3-4 hours | 0.26 | 1.1 | 100
concentration: 4.5 (µM), S9 metabolic activation: without S9, exposure time: 24 hours | 0.86 | 0.82 | 89
concentration: 5.63 (µM), S9 metabolic activation: with S9, exposure time: 3-4 hours | 0.26 | 0.84 | 92.3
concentration: 5.63 (µM), S9 metabolic activation: without S9, exposure time: 24 hours | 0.7 | 1.28 | 98.3
concentration: 7.04 (µM), S9 metabolic activation: with S9, exposure time: 3-4 hours | 0.26 | 1.1 | 103
concentration: 7.04 (µM), S9 metabolic activation: without S9, exposure time: 24 hours | 0.66 | 1.32 | 105
concentration: 8.8 (µM), S9 metabolic activation: with S9, exposure time: 3-4 hours | 0.24 | 0.8 | 108
concentration: 8.8 (µM), S9 metabolic activation: without S9, exposure time: 24 hours | 0.7 | 1.18 | 87.6
concentration: 11 (µM), S9 metabolic activation: with S9, exposure time: 3-4 hours | 0.18 | 1 | 91.3
concentration: 11 (µM), S9 metabolic activation: without S9, exposure time: 24 hours | 0.7 | 0.94 | 85.1
concentration: 13.7 (µM), S9 metabolic activation: with S9, exposure time: 3-4 hours | 0.18 | 0.92 | 120
concentration: 13.7 (µM), S9 metabolic activation: without S9, exposure time: 24 hours | 0.88 | 1.14 | 88.7
concentration: 17.2 (µM), S9 metabolic activation: with S9, exposure time: 3-4 hours | 0.26 | 0.82 | 105
concentration: 17.2 (µM), S9 metabolic activation: without S9, exposure time: 24 hours | 0.58 | 1.22 | 102
concentration: 21.5 (µM), S9 metabolic activation: with S9, exposure time: 3-4 hours | 0.2 | 0.8 | 112
concentration: 21.5 (µM), S9 metabolic activation: without S9, exposure time: 24 hours | 0.4 | 1.74 | 129
concentration: 26.8 (µM), S9 metabolic activation: with S9, exposure time: 3-4 hours | 0.34 | 0.68 | 103
concentration: 26.8 (µM), S9 metabolic activation: without S9, exposure time: 24 hours | 0.78 | 0.94 | 121
concentration: 33.6 (µM), S9 metabolic activation: with S9, exposure time: 3-4 hours | 0.22 | 0.68 | 119
concentration: 33.6 (µM), S9 metabolic activation: without S9, exposure time: 24 hours | 1.16 | 0.98 | 97.6
concentration: 41.9 (µM), S9 metabolic activation: with S9, exposure time: 3-4 hours | 0.24 | 0.8 | 108
concentration: 41.9 (µM), S9 metabolic activation: without S9, exposure time: 24 hours | 0.72 | 1.22 | 85.1
concentration: 52.4 (µM), S9 metabolic activation: with S9, exposure time: 3-4 hours | 0.2 | 0.82 | 108
concentration: 52.4 (µM), S9 metabolic activation: without S9, exposure time: 24 hours | 1.06 | 1.9 | 95.5
concentration: 65.5 (µM), S9 metabolic activation: with S9, exposure time: 3-4 hours | 0.14 | 0.74 | 112
concentration: 65.5 (µM), S9 metabolic activation: without S9, exposure time: 24 hours | 0.84 | 0.9 | 103
concentration: 81.9 (µM), S9 metabolic activation: with S9, exposure time: 3-4 hours | 0.14 | 1 | 98.2
concentration: 81.9 (µM), S9 metabolic activation: without S9, exposure time: 24 hours | 1.08 | 1.22 | 98.6
concentration: 102 (µM), S9 metabolic activation: with S9, exposure time: 3-4 hours | 0.2 | 0.62 | 93.5
concentration: 102 (µM), S9 metabolic activation: without S9, exposure time: 24 hours | 1.08 | 1.28 | 94.5
concentration: 128 (µM), S9 metabolic activation: with S9, exposure time: 3-4 hours | 0.2 | 1.04 | 125
concentration: 128 (µM), S9 metabolic activation: without S9, exposure time: 24 hours | 1.12 | 1.48 | 96.5
concentration: 160 (µM), S9 metabolic activation: with S9, exposure time: 3-4 hours | 0.26 | 1 | 96.5
concentration: 160 (µM), S9 metabolic activation: without S9, exposure time: 24 hours | 1.3 | 1.6 | 84.3
concentration: 200 (µM), S9 metabolic activation: with S9, exposure time: 3-4 hours | 0.2 | 0.96 | 77.5
concentration: 200 (µM), S9 metabolic activation: without S9, exposure time: 24 hours | 1.14 | 2.58 | 88.7

Nc1ccc(-c2ccc(N)cc2)cc1 [Benzidine]
Details | hypodiploid nuclei frequency, CHO-K1 [2] [%] | micronucleus frequency, CHO-K1 [1] [%] | relative survival, CHO-K1 [3]
concentration: 4.5 (µM), S9 metabolic activation: with S9, exposure time: 3-4 hours | 0.14 | 1.46 | 140
concentration: 4.5 (µM), S9 metabolic activation: without S9, exposure time: 24 hours | 0.42 | 1.46 | 115
concentration: 5.63 (µM), S9 metabolic activation: with S9, exposure time: 3-4 hours | 0.18 | 1.32 | 151
concentration: 5.63 (µM), S9 metabolic activation: without S9, exposure time: 24 hours | 0.66 | 1.24 | 115
concentration: 7.04 (µM), S9 metabolic activation: with S9, exposure time: 3-4 hours | 0.2 | 1.24 | 134
concentration: 7.04 (µM), S9 metabolic activation: without S9, exposure time: 24 hours | 0.6 | 1.78 | 100
concentration: 8.8 (µM), S9 metabolic activation: with S9, exposure time: 3-4 hours | 0.36 | 1.42 | 152
concentration: 8.8 (µM), S9 metabolic activation: without S9, exposure time: 24 hours | 0.64 | 1.62 | 88.8
concentration: 11 (µM), S9 metabolic activation: with S9, exposure time: 3-4 hours | 0.26 | 1.48 | 168
concentration: 11 (µM), S9 metabolic activation: without S9, exposure time: 24 hours | 0.62 | 1.5 | 91.2
concentration: 13.7 (µM), S9 metabolic activation: with S9, exposure time: 3-4 hours | 0.14 | 1.48 | 129
concentration: 13.7 (µM), S9 metabolic activation: without S9, exposure time: 24 hours | 0.96 | 2.02 | 95
concentration: 17.2 (µM), S9 metabolic activation: with S9, exposure time: 3-4 hours | 0.14 | 1.6 | 137
concentration: 17.2 (µM), S9 metabolic activation: without S9, exposure time: 24 hours | 0.78 | 1.84 | 88.4
concentration: 21.5 (µM), S9 metabolic activation: with S9, exposure time: 3-4 hours | 0.26 | 1.6 | 141
concentration: 21.5 (µM), S9 metabolic activation: without S9, exposure time: 24 hours | 0.94 | 2.28 | 85.8
concentration: 26.8 (µM), S9 metabolic activation: with S9, exposure time: 3-4 hours | 0.22 | 1.9 | 242
concentration: 26.8 (µM), S9 metabolic activation: without S9, exposure time: 24 hours | 1 | 2.14 | 84
concentration: 33.6 (µM), S9 metabolic activation: with S9, exposure time: 3-4 hours | 0.3 | 1.44 | 146
concentration: 33.6 (µM), S9 metabolic activation: without S9, exposure time: 24 hours | 1.26 | 2.62 | 86.1
concentration: 41.9 (µM), S9 metabolic activation: with S9, exposure time: 3-4 hours | 0.32 | 0.96 | 118
concentration: 41.9 (µM), S9 metabolic activation: without S9, exposure time: 24 hours | 1.62 | 2.46 | 79.6
concentration: 52.4 (µM), S9 metabolic activation: with S9, exposure time: 3-4 hours | 0.22 | 1.1 | 125
concentration: 52.4 (µM), S9 metabolic activation: without S9, exposure time: 24 hours | 2.4 | 3.3 | 82.8
concentration: 65.5 (µM), S9 metabolic activation: with S9, exposure time: 3-4 hours | 0.24 | 1.06 | 104
concentration: 65.5 (µM), S9 metabolic activation: without S9, exposure time: 24 hours | 2.98 | 2.74 | 64.5
concentration: 81.9 (µM), S9 metabolic activation: with S9, exposure time: 3-4 hours | 0.12 | 1.44 | 153
concentration: 81.9 (µM), S9 metabolic activation: without S9, exposure time: 24 hours | 2.56 | 3.4 | 63.3
concentration: 102 (µM), S9 metabolic activation: with S9, exposure time: 3-4 hours | 0.42 | 1.08 | 143
concentration: 102 (µM), S9 metabolic activation: without S9, exposure time: 24 hours | 2.91 | 3.37 | 50.1
concentration: 128 (µM), S9 metabolic activation: with S9, exposure time: 3-4 hours | 0.16 | 1.5 | 101
concentration: 128 (µM), S9 metabolic activation: without S9, exposure time: 24 hours | 3.46 | 3.58 | 51
concentration: 160 (µM), S9 metabolic activation: with S9, exposure time: 3-4 hours | 0.16 | 1.64 | 127
concentration: 160 (µM), S9 metabolic activation: without S9, exposure time: 24 hours | 1.94 | 2.97 | 50.1
concentration: 200 (µM), S9 metabolic activation: with S9, exposure time: 3-4 hours | 0.28 | 1.58 | 115
concentration: 200 (µM), S9 metabolic activation: without S9, exposure time: 24 hours | 1.2 | 2.5 | 52.8
